# Test results from the supplement of paper PMC3334620.
# In all, about 33,000 sequences were measured (“E-score (-0.5 to 0.5)”: median about -0.011, highest 2% from about 0.28 on). The list shows a part of the results.
# Molecular target: T1, Gcr1 (UniProt P07261)
# T1 sequence: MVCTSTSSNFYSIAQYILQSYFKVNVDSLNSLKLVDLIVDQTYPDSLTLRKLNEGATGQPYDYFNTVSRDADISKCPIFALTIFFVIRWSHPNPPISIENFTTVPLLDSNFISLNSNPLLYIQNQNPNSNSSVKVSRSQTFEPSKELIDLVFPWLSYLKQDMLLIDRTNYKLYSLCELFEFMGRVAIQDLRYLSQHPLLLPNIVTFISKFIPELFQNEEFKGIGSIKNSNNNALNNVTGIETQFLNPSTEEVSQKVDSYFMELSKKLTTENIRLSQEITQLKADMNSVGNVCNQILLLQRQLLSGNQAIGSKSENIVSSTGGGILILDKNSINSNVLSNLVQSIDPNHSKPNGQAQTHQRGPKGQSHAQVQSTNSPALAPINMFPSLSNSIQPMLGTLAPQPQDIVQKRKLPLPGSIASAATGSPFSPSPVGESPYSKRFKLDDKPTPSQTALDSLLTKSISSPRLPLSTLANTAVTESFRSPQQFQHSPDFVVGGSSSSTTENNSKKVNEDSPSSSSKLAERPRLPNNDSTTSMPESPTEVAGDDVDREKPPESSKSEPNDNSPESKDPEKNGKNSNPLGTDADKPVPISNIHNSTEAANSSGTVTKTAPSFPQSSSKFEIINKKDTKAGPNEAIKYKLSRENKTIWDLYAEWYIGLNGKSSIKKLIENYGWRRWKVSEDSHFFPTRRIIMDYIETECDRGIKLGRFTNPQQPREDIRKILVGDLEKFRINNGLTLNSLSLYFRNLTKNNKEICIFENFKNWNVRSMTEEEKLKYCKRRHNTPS
# Test: PBM E-score (8-mer binding enrichment) (E-score (-0.5 to 0.5)); higher = stronger / more preferred TF binding; most listed sequences are background and not binding sites
# Settings: protein concentration: 100 nM; construct: GST-full length
# Method in brief: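 Bound GST-tagged yeast transcription factors, applied at about 100-200 nM to double-stranded universal all-10-mer Agilent arrays, were detected with fluorescent anti-GST. Scans were normalised with masliner. A modified Wilcoxon-Mann-Whitney statistic, the E-score, was assigned to each ungapped eight-base word pooled with its reverse complement by the Universal PBM Analysis Suite.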
row,Sequence,PBM E-score
1,CATGTGTC,-0.204
2,ATACCAAG,0.129
3,ACCACTCT,0.122
4,ACGTCGAC,0.0185
5,CAACATTA,0.0316
6,GCATAAGC,-0.137
7,CTGCCCAC,-0.101
8,AGACTCGG,-0.189
9,ACTCCTAC,-0.0219
10,CCCTAACC,0.0899
11,ACTGCAAA,-0.0564
12,TATGCTGA,-0.0029
13,CCGTGGAA,0.0996
14,CCTGGCAG,-0.126
15,CGAGCCCG,-0.0991
16,ACTTATCG,-0.12
17,CCGGTTCC,0.122
18,TGCGAGAA,0.0253
19,CCTACTAA,0.204
20,GCAGTGCA,-0.247
21,ACCACGGA,-0.146
22,ACTTTTCG,-0.0432
23,TTAGAAAA,0.0279
24,CTGAGCTA,-0.0113
25,TAACTGAA,0.144

row,Sequence,PBM E-score
1,CACTTGTA,-0.0592
2,CAGTATCA,0.0318
3,ATGCCACG,-0.0778
4,GTCAGCTA,-0.231
5,GTATGGCA,0.0292
6,ATTAACAG,0.194
7,ATATTGTG,-0.0532
8,CACACAAA,0.0777
9,GTGCGCGA,0.0278
10,CAGTTCAC,0.00709
11,AGAGGCAC,0.161
12,GCTTGGCA,-0.0659
13,TAAATATA,0.188
14,ACTGGCCT,-0.121
15,AAAGTGAC,-0.207
16,CCTAGTCA,-0.234
17,CTTCGAGA,-0.128
18,GTCAAAAA,0.144
19,GACAGTCC,-0.251
20,ACGACAAG,-0.127
21,CAGAGTAG,0.0147
22,ATGACATG,-0.0581
23,AGGTACGG,-0.174
24,ACAGGCGG,-0.078
25,ACGGCTGG,-0.253

row,Sequence,PBM E-score
1,CGCTGATA,-0.199
2,CTATGCTC,-0.0414
3,AAACGCTG,0.016
4,ATTAGGGA,0.128
5,GCCCACAC,0.133
6,AATAGGGG,0.215
7,CGCAGGAG,-0.0971
8,ACGGTAGT,-0.109
9,AAGGTGTC,0.0915
10,GTAACCAC,0.132
11,TGCGGCAA,-0.0141
12,AGAAAGAT,-0.134
13,CTTCCTTC,-0.00246
14,CATACTTC,-0.186
15,GCAGTAAA,-0.141
16,AGTTTTCC,-0.101
17,AGCTTAAC,-0.106
18,ATGCAGAA,0.175
19,ATATGTAG,0.0777
20,AAAACACG,0.128
21,CCAGCGGG,0.0339
22,GCTGGCTA,-0.259
23,ATTATTAC,0.177
24,CATGAATG,0.15
25,CCTAGGGC,-0.0655

row,Sequence,PBM E-score
1,ATGTGCAG,-0.162
2,CGAATACA,0.253
3,CCTTCTAA,-0.0438
4,ATATCATG,-0.0473
5,CGGAACAA,-0.0157
6,AAAACGGC,0.0677
7,AGCAAAAT,0.051
8,CGTGGGCC,-0.23
9,CTGGACGA,-0.0396
10,GTCACGAA,0.0893
11,CGGACAAA,-0.233
12,GGTGGCGA,-0.0473
13,CACATACC,-0.0696
14,GAACTTAC,-0.289
15,AGCTTCTC,0.25
16,CGGTCTTA,-0.196
17,AATGTTAC,-0.0346
18,AGTCGGTC,-0.106
19,AACGTTGT,0.0452
20,CGAAGACG,0.0533
21,TCCAAACA,0.135
22,CGCTTTTC,0.102
23,GACAAGAC,0.0539
24,CAGTGAGA,0.0173
25,ATACCTGG,0.0555

row,Sequence,PBM E-score
1,CGATGTGA,-0.0422
2,GTTTATGA,-0.129
3,CGTCTTAA,0.192
4,AGGGTACA,-0.0876
5,ACAGGGTC,0.0336
6,ATCTTGAA,0.0985
7,TAAGATAA,-0.0012
8,CTGTTGTC,-0.0893
9,TTCTTCAA,0.0922
10,AATCAGCC,-0.0813
11,CTCTGGCA,0.12
12,CTTTTACC,-0.0196
13,GGCGCCAC,0.253
14,CAGCTTCC,0.457
15,GTGGGAAC,0.253
16,CGCCGACG,0.0121
17,ACACCCCC,-0.242
18,CATCGATA,0.0219
19,CAGATTGC,-0.169
20,ACCGCCCT,-0.123
21,GGCGGGAA,0.0372
22,ACGACTAT,-0.216
23,CTCATCCC,-0.143
24,CACCTCAG,-0.0306
25,CAAGGCCA,-0.205

row,Sequence,PBM E-score
1,CGTGAGGC,-0.0867
2,AGGGATCG,-0.151
3,GGCGGACC,-0.182
4,CCCGTTGA,-0.059
5,GCCAGCAA,-0.00361
6,CTAAACAC,0.0567
7,ACGACTAA,-0.15
8,AAAGTAAG,-0.118
9,CATCGGGC,-0.136
10,TGGATACA,0.0302
11,CCCGTGTC,0.0263
12,CAGAGGAA,0.0251
13,CCATTCGC,0.0469
14,TGTCGTAA,-0.124
15,CGAAAAGC,0.0636
16,GCCAACTA,0.0299
17,ATTTAGTC,-0.0246
18,CGCGAGGA,-0.148
19,AAATAAGC,0.0516
20,ACTTGTAA,-0.0385
21,AATATGTC,0.0516
22,GCTGGTCC,-0.0587
23,ATCGTAAC,-0.0575
24,ACGGTGGG,0.116
25,CGGTACCG,-0.0587

row,Sequence,PBM E-score
1,GGCTTTTA,-0.0552
2,GATTCCGC,0.224
3,TCCAAGCA,-0.165
4,CACGGTCG,-0.217
5,CTGTCTAA,-0.108
6,TCTAGGCA,0.128
7,CACGCGAG,-0.213
8,GAGCAGAC,-0.093
9,AGAGGTGG,0.0606
10,AGTAAAGG,0.219
11,ACTAGGCC,-0.117
12,TGACAACA,-0.0143
13,CCGTAAGG,-0.0594
14,GTTAGATA,-0.0212
15,CTTGGGGA,0.0137
16,ACTCGCAT,-0.0648
17,CACATGCC,-0.234
18,CTTGCCAA,-0.0564
19,TTCAGGAA,0.189
20,AAAGACCA,-0.155
21,ATGACATC,0.0887
22,CCCTAGGG,-0.0596
